This is an account of results in PMC4165372, “Nutritional status modulates box C/D snoRNP biogenesis by regulated subcellular relocalization of the R2TP complex” (Genome Biology, 2014).

By UniProt entry, the sequences of proteins in these tests, tags left out.
UniProt Q03940: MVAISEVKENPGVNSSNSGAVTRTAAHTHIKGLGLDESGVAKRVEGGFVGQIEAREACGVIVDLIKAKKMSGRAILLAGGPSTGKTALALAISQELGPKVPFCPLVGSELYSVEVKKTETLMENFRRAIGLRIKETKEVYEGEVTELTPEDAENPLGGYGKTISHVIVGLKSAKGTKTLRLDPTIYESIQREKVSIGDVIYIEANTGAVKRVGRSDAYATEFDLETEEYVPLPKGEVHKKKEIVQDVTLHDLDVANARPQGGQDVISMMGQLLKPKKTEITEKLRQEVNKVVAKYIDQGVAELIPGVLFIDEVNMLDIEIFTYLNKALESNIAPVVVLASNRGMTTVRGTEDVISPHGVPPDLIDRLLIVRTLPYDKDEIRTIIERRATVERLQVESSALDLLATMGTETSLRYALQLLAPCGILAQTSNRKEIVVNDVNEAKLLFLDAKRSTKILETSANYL
UniProt Q12464: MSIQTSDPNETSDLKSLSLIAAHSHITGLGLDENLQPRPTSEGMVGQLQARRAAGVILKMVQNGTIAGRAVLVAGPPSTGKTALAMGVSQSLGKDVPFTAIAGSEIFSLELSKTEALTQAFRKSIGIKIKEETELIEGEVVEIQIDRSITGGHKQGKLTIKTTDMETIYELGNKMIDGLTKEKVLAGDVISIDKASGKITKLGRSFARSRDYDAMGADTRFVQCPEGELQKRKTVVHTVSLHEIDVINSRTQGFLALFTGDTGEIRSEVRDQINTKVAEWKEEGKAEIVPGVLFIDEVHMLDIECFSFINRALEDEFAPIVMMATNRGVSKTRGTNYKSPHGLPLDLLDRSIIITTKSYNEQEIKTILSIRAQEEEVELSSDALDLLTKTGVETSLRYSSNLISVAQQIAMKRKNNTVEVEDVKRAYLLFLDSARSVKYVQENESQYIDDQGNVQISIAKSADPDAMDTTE

Results are given in words; binding and its absence hold for the method and conditions named. Binding seen in cells or lysates may run through a third protein. Some binding calls cover weakened binding; strength is not graded here. Where a sequence is shown, tags or fusion partners need not be part of it.

Test [1] addresses T1, Nop56-FLAG (S. cerevisiae) (UniProt Q12460).
T1 sequence: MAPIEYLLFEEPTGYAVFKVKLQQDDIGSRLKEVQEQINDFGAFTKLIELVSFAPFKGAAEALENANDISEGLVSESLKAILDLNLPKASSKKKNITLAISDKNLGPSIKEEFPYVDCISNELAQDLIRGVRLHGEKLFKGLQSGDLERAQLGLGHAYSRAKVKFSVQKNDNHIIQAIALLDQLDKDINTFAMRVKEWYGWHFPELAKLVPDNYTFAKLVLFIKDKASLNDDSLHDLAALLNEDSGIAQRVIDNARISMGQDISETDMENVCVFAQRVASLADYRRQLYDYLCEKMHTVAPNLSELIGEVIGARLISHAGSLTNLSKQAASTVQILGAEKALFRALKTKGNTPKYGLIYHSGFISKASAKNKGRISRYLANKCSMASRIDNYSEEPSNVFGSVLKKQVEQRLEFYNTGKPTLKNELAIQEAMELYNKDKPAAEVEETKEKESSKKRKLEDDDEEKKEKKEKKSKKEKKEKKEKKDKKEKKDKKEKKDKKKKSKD
Description: co-IP; FLAG pulldown: anti-FLAG (M2) beads on soluble lysate of endogenously C-terminal 3xFLAG-tagged yeast strains, log phase; buffer H with 0.1 M KCl, washes with 0.3 or 0.5 M KCl, FLAG peptide elution; Western blot or silver stain; also lysate treated with RNase A or DNase I, pih1Δ or tah1Δ background, rapamycin, Nup53 or Nup53-CΔ overexpression, bead-bound Nop58-FLAG complex with or without 4 mM ATP. Background: In western blotting, separated proteins are transferred to a membrane and probed.

Test [2] concerns the target T2, Nop1-FLAG (S. cerevisiae) (UniProt P15646).
T2 sequence: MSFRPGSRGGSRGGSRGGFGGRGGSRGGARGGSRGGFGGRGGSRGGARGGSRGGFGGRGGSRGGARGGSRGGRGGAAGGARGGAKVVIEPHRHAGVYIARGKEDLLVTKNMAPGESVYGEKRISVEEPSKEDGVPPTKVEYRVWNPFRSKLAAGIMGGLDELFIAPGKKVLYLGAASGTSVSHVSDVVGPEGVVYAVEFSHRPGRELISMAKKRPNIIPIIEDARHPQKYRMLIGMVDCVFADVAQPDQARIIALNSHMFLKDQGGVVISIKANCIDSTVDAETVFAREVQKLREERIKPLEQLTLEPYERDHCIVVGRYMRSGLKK
The test is described as above.

Test [3] concerns the target T3, Snu13-FLAG (S. cerevisiae) (UniProt P39990).
T3 sequence: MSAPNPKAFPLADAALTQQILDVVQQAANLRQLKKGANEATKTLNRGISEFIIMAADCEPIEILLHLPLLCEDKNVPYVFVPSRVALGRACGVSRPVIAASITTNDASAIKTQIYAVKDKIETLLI
Described as above.

The target of test [4] is T4, Nop58-FLAG (S. cerevisiae) (UniProt Q12499).
T4 sequence: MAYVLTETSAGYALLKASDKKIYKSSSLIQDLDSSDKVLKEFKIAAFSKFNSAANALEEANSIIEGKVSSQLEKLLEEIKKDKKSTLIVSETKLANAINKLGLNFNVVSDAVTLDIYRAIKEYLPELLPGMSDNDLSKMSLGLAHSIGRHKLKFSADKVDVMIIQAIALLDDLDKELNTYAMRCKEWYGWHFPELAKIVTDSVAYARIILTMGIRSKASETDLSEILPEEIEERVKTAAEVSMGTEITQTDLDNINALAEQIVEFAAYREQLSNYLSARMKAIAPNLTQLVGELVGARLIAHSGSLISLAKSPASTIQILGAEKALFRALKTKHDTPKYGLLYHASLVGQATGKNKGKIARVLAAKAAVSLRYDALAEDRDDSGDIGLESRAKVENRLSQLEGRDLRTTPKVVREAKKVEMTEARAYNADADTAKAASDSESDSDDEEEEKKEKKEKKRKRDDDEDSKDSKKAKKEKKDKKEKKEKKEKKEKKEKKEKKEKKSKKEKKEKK
Described as above.

Test [5] has as its target T5, Nop58(1–511)-FLAG (S. cerevisiae) (UniProt Q12499).
T5 sequence: T4 sequence
The test can be described thus: co-IP; FLAG pulldown: anti-FLAG beads on lysate of yeast overexpressing p416GAL Nop58-FLAG subdomain constructs after galactose induction (6 h, 30°C); Western blot.

The target of test [6] is T6, Nop58(285–447)-FLAG (S. cerevisiae) (UniProt Q12499).
T6 sequence: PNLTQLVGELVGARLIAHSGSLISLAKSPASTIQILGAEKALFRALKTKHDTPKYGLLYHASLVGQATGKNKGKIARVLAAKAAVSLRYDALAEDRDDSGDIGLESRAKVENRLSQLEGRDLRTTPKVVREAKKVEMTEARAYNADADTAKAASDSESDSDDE
The description is as above.

The target of test [7] is T7, Nop58(285–511)-FLAG (S. cerevisiae) (UniProt Q12499).
T7 sequence: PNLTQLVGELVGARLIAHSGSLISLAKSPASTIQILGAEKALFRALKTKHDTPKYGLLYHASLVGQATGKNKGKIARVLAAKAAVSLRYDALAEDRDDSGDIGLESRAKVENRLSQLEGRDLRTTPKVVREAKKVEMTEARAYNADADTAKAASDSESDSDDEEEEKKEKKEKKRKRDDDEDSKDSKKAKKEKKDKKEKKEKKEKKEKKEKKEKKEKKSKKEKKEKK
Described as above.

Test [8] addresses T8, Nop58(345–511)-FLAG (S. cerevisiae) (UniProt Q12499).
T8 sequence: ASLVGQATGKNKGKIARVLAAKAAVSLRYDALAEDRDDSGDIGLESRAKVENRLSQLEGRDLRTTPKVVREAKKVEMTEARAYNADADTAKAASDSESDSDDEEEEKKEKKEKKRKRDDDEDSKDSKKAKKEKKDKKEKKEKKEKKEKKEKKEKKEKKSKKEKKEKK
Described as above.

For test [9], the target named is T9, Nop58(345–447)-FLAG (S. cerevisiae) (UniProt Q12499).
T9 sequence: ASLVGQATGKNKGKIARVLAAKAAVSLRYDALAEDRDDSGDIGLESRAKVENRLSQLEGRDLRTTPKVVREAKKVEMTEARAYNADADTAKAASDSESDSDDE
The description is as above.

For Rvb1 (from UniProt Q03940 1-463), the binding result in test [1], in [2] and in test [3] was “binds weakly” in each case.
With Rvb2 (from UniProt Q12464 1-471), the binding result in test [1], in [2] and in [3] was “binds weakly” in each case.

B1: Nop56 (protein, UniProt Q12460 1-504)
chain: T1 sequence
For B1, the binding result in [4] is listed as “binds”; in [5] it was “binds”; in test [6], “no binding”; in [7] it was “binds”; in [8], “no binding”; in test [9], “no binding”.

B2: Snu13 (protein, UniProt P39990 1-126)
chain: T3 sequence
Take B2: the binding result in test [4] is reported as “binds”; in test [5], “binds”; in [6] it was “no binding”; in [7] it was “binds”; in [8], “no binding”; in [9] it was “no binding”.

B3: Nop1 (protein, UniProt P15646 1-327)
chain: T2 sequence
Take B3: the binding entry in test [6] is “no binding”; in [7], “binds”; in test [8], “no binding”; in [9], “no binding”.
